Assay results published in patent US20230061378A1 (SUZHOU ALPHAMAB, published 2023).
Numbering of substitutions follows the chain as printed.

B1: iPT7Fc (Fc fusion)
chain: QVQLQESGGGSVQPGGSLRLSCAASGYTYSSYCMGWFRQAPGKEREGVAAIDSDGRTSYADFVKGRFTISKDNAKNTLYLQMNSLKPEDTAKYYCATEQRIGGSWYDLCGGADFGYWGQGTQVTVSS[human IgG1 Fc cut from this listing]
B2: iPT12Fc (Fc fusion)
chain: QVQLQESGGGSVQAGGSLRLSCAASGYTYSSYCMGWFRQAPGKEREGVAGIESDGSTSYADSVKGRFSISKDNVKNTLYLQMNTLKPEDTGIYYCAVQSPLPGGSWYSLCGGADFGYWGQGTQVTVSS[human IgG1 Fc cut from this listing]
B3: iPT15Fc (Fc fusion)
chain: QVQLQESGGGSVQAGGSLRLSCAASGYTYGSYCMAWFRQAPGKEREGVAGVDSDGTTRYADSVKGRFTISKDNAENTLYLQMNSLKPEDTSMYYCAAGVCGTGGSWYEGDAGLFMYEFAYWGQGTQVTVSS[human IgG1 Fc cut from this listing]
notes: also called iPT15-Fe
B4: iPT42Fc (Fc fusion)
chain: QVQLQESGGGSVQAGGSLRLSCAASGYTYSDVCMGWFRQAPGKEREGVAAIDSVGNTNYADSVKGRFTISKDNAKNTLYLQMNSLKPEDTAMYYCAAQRCLGWVPLVPHEYGFWGQGTQVTVSS[human IgG1 Fc cut from this listing]
B5: iPT22Fc (Fc fusion)
chain: QVQLQESGGGSVQAGGSLQLSCAATDITYSRCMAWFRQAPGKSREGVAALSTNGGSTWYADSVKGRFTISRDGAKNTIYLQMRSLKPEDTAMYYCADSSFFSCRDCSGGDCPRSRDYKYWGQGTQVTVSS[human IgG1 Fc cut from this listing]
B6: iPT42n12Fc (Fc fusion)
chain: QVQLQESGGGSVQAGGSLRLSCAASGYTYSDVCMGWFRQAPGKEREGVAAIDSVGNTNYADSVKGRFTISKDNAKNTLYLQMNSLKPEDTAMYYCAAQRCLGWVPLVPHEYGFWGQGTQVTVSSQVQLQESGGGSVQAGGSLRLSCAASGYTYSSYCMGWFRQAPGKEREGVAGIESDGSTSYADSVKGRFSISKDNVKNTLYLQMNTLKPEDTGIYYCAVQSPLPGGSWYSLCGGADFGYWGQGTQVTVSS[human IgG1 Fc cut from this listing]
B7: huPT42v6n7v11-Fc (Fc fusion)
chain: QVQLVESGGGLVQPGGSLRLSCAASGYTYSDVCMGWFRQAPGKGLEGVAAIDSVGNTNYADSVKGRFTISKDNSKNTLYLQMNSLRAEDTAVYYCAAQRCLGWVPLVPHEYGYWGQGTLVTVSSQVQLVESGGGLVQPGGSLRLSCAASGYTYSSYCMGWFRQAPGKGLEGVAAIDSDGRTSYADFVKGRFTISKDNSKNTLYLQMNSLKPEDTAVYYCATEQRIGGSWYDLCGGADFGYWGQGTLVTVSS[human IgG1 Fc cut from this listing]
notes: also called huPT42n7-Fc
B8: huPT42v6n15v11c-Fc (Fc fusion)
chain: QVQLVESGGGLVQPGGSLRLSCAASGYTYSDVCMGWFRQAPGKGLEGVAAIDSVGNTNYADSVKGRFTISKDNSKNTLYLQMNSLRAEDTAVYYCAAQRCLGWVPLVPHEYGYWGQGTLVTVSSQVQLVESGGGLVQPGGSLRLSCAASGYTYGSYCMAWFRQAPGKEREGVAGVDSDGTTRYADSVKGRFTISRDNSENTLYLQMNSLKPEDTAVYYCAAGVCGTGGSWYEGDAGLFMYEFAYWGQGTLVTVSS[human IgG1 Fc cut from this listing]
notes: also called huPT42n15-Fc
B9: iPT20Fc (Fc fusion)
chain: QVQLQESGGGSVQAGGSLRLSCAASEYRYCMAWFRQAPGKEREGVAGIYIGDRTVYSDSVKGRFTISQDNADNTVYLQMNSLKPEDTAMYYCATVDLICPSDWAQRLQYQYWGQGTQVTVSS[human IgG1 Fc cut from this listing]
B10: huPT7v1Fc (Fc fusion)
chain: B1 chain with Q5V, P14A, A74S, K86R, P87A, K92V, Q122L
notes: also called huPT7V1-ld-Fc
B11: huPT7v11Fc (Fc fusion)
chain: B1 chain with Q5V, S11L, E44G, R45L, A74S, K92V, Q122L
notes: also called huPT7V11-ld-Fc; huPT7v11Fe
B12: huPT15v11cFc (Fc fusion)
chain: B3 chain with Q5V, S11L, A14P, K71R, A74S, S91A, M92V, Q126L
notes: also called huPT15V11c-ld-Fc
B13: huPT15v7cFc (Fc fusion)
chain: B3 chain with Q5V, S11L, A14P, A74S, K86R, P87A, S91A, M92V, Q126L
notes: also called huPT15V7c-ld-Fc
B14: huPT42v4Fc (Fc fusion)
chain: QVQLVESGGGLVQPGGSLRLSCAASGYTYSDVCMGWFRQAPGKGLEGVAAIDSVGNTNYADSVKGRFTISRDNSKNTLYLQMNSLRAEDTAVYYCAAQRCLGWVPLVPHEYGYWGQGTLVTVSS[human IgG1 Fc cut from this listing]
notes: also called huPT42V4-ld-Fc
B15: huPT42v6Fc (Fc fusion)
chain: B14 chain with R71K
notes: also called huPT42V6-ld-Fc

molecular target: T1, pertussis toxin (PT) (Bordetella pertussis); experiment: BLI in-tandem binning on PT-biotin; competitor (Ab1, bound first): 11E6
T1 construct: also called recombinant pertussis toxin protein; PT toxin

Going from B1 to B2, the “Ab2 with Ab1/Ab2 without Ab1” value falls from 36% to 15%.

First: B3
Second: B4
The “Ab2 with Ab1/Ab2 without Ab1” value of the first is higher: 88% for the first, 86% for the second.

For B5, the “Ab2 with Ab1/Ab2 without Ab1” value was 76%.

molecular target: T1, pertussis toxin (PT); experiment: BLI in-tandem binning on PT-biotin; competitor (Ab1, bound first): 1B7

First: B1
Second: B2
The “Ab2 with Ab1/Ab2 without Ab1” value of the first is lower: 86% for the first, 88% for the second.

Compared with B3, B4 is higher in “Ab2 with Ab1/Ab2 without Ab1” value: 85% for the first, 88% for the second.

With B5 the “Ab2 with Ab1/Ab2 without Ab1” value was 79%.

molecular target: T1, pertussis toxin (PT); experiment: cell-based or functional assay

B2 and B6 are within 1.5-fold of each other in “Concentration for completely neutralizing PTToxin” value: 0.42 µg/mL for the first, 0.333 µg/mL for the second.

molecular target: T1, pertussis toxin (PT); experiment: BLI, antibody on AHC biosensor, PTpuri 6.25-100 nM in solution

Compared with B7, B8 is lower in Kd: 0.2 nM for the first, less than 0.001 nM for the second. The second binds more tightly here.

Compared with B7, B8 is lower in koff: 9.18e-05 s⁻¹ for the first, less than 1e-07 s⁻¹ for the second.

B7 and B8 are within 1.5-fold of each other in kon: 459000 M⁻¹ s⁻¹ for the first, 337000 M⁻¹ s⁻¹ for the second.

molecular target: T1, pertussis toxin (PT); experiment: BLI in-tandem binning on PT-biotin; competitor (Ab1, bound first): iPT12FC

First: B1
Second: B2
The “Ab2 with Ab1/Ab2 without Ab1” value of the first is higher: 16.3% for the first, 11.9% for the second.

First: B3
Second: B4
The “Ab2 with Ab1/Ab2 without Ab1” value of the first is higher: 86.8% for the first, 79% for the second.

With B5 the “Ab2 with Ab1/Ab2 without Ab1” value was 53.3%.

molecular target: T1, pertussis toxin (PT); experiment: BLI in-tandem binning on PT-biotin; competitor (Ab1, bound first): iPT22FC

Compared with B1, B2 is lower in “Ab2 with Ab1/Ab2 without Ab1” value: 82.7% for the first, 78.5% for the second.

Going from B3 to B4, the “Ab2 with Ab1/Ab2 without Ab1” value rises from 32.6% to 84.2%.

B5 was tested, and the “Ab2 with Ab1/Ab2 without Ab1” value was 7.1%.

molecular target: T1, pertussis toxin (PT); experiment: BLI, tetravalent Fc fusion on AHC biosensor, PTpuri 6.25-100 nM in solution

B6 gave a Kd of 0.237 nM.

With B6 the koff was 0.000134 s⁻¹.

In the case of B6, the kon is reported as 564000 M⁻¹ s⁻¹.

molecular target: T1, pertussis toxin (PT); experiment: BLI in-tandem binning on PT-biotin; competitor (Ab1, bound first): iPT7FC

Compared with B1, B2 is higher in “Ab2 with Ab1/Ab2 without Ab1” value: 12% for the first, 17.4% for the second.

First: B3
Second: B4
The “Ab2 with Ab1/Ab2 without Ab1” value of the first is higher: 79.8% for the first, 79.6% for the second.

With B5 the “Ab2 with Ab1/Ab2 without Ab1” value was 41.7%.

molecular target: T1, pertussis toxin (PT); experiment: BLI in-tandem binning on PT-biotin; competitor (Ab1, bound first): iPT35FC

Going from B1 to B2, the “Ab2 with Ab1/Ab2 without Ab1” value rises from 119% to 120%.

Going from B3 to B4, the “Ab2 with Ab1/Ab2 without Ab1” value rises from 71.1% to 98.6%.

For B5, the “Ab2 with Ab1/Ab2 without Ab1” value was 30.6%.

molecular target: T1, pertussis toxin (PT); experiment: cell-based or functional assay; remark: another data set of the same source

First: B7
Second: B8
The “Minimum neutralizing concentration (CHO-K1 cells with PT toxin)” value (shortened to “Minimum neutralizing concentration”) of the first is 2-fold lower: 0.05 µg/mL for the first, 0.1 µg/mL for the second.

molecular target: T1, pertussis toxin (PT); experiment: BLI (Octet), Fc fusion on AHC biosensor, PT 6.25-100 nM in solution, 1:1 model

Going from B2 to B3, the Kd rises from 0.0891 nM to 0.138 nM (1.5-fold). The first binds more tightly here.

Going from B4 to B9, the Kd falls from 0.375 nM to 0.221 nM (1.7-fold). The second binds more tightly here.

In the case of B5, the Kd is reported as 0.739 nM.

B2 and B3 are within 1.5-fold of each other in koff: 5.51e-05 s⁻¹ for the first, 5.4e-05 s⁻¹ for the second.

Compared with B4, B9 is 1.5-fold lower in koff: 0.000145 s⁻¹ for the first, 9.46e-05 s⁻¹ for the second.

In the case of B5, the koff is reported as 0.000379 s⁻¹.

First: B2
Second: B3
The kon of the first is 1.6-fold higher: 618000 M⁻¹ s⁻¹ for the first, 393000 M⁻¹ s⁻¹ for the second.

B4 and B9 are within 1.5-fold of each other in kon: 386000 M⁻¹ s⁻¹ for the first, 467000 M⁻¹ s⁻¹ for the second.

In the case of B5, the kon is reported as 513000 M⁻¹ s⁻¹.

molecular target: T1, pertussis toxin (PT); experiment: BLI in-tandem binning on PT-biotin; competitor (Ab1, bound first): iPT15FC

Going from B1 to B2, the “Ab2 with Ab1/Ab2 without Ab1” value falls from 116% to 108%.

Going from B3 to B4, the “Ab2 with Ab1/Ab2 without Ab1” value rises from 15.4% to 79.8%.

B5 was tested, and the “Ab2 with Ab1/Ab2 without Ab1” value was 6.73%.

molecular target: T1, pertussis toxin (PT); experiment: cell-based or functional assay; remark: another data set of the same source

B1 and B10 cannot be ordered by “Minimum neutralizing concentration” value: less than 1 µg/mL for the first, less than 0.5 µg/mL for the second.

B11 and B12 cannot be ordered by “Minimum neutralizing concentration” value: less than 0.5 µg/mL for the first, less than 1 µg/mL for the second.

B13 and B3 cannot be ordered by “Minimum neutralizing concentration” value: less than 1 µg/mL for the first, less than 1 µg/mL for the second.

Compared with B14, B15 is 2-fold lower in “Minimum neutralizing concentration” value: roughly 32 µg/mL for the first, roughly 16 µg/mL for the second.

molecular target: T1, pertussis toxin (PT); experiment: BLI in-tandem binning on PT-biotin; competitor (Ab1, bound first): iPT26FC

First: B1
Second: B2
The “Ab2 with Ab1/Ab2 without Ab1” value of the first is higher: 117% for the first, 110% for the second.

Compared with B3, B4 is lower in “Ab2 with Ab1/Ab2 without Ab1” value: 103% for the first, 93.6% for the second.

In the case of B5, the “Ab2 with Ab1/Ab2 without Ab1” value is reported as 51%.

molecular target: T1, pertussis toxin (PT); experiment: BLI in-tandem binning on PT-biotin; competitor (Ab1, bound first): iPT42FC

Compared with B1, B2 is lower in “Ab2 with Ab1/Ab2 without Ab1” value: 110% for the first, 105% for the second.

Compared with B3, B4 is lower in “Ab2 with Ab1/Ab2 without Ab1” value: 77.6% for the first, 10.5% for the second.

B5 was tested, and the “Ab2 with Ab1/Ab2 without Ab1” value was 45.6%.

molecular target: T1, pertussis toxin (PT); experiment: cell-based or functional assay; remark: another data set of the same source

B1 and B2 are within 1.5-fold of each other in “Completely neutralizing concentration (CHO-K1 cells with PT toxin)” value (from here on “Completely neutralizing concentration”): 1.56 µg/mL for the first, 1.12 µg/mL for the second.

Compared with B3, B9 is 32-fold higher in “Completely neutralizing concentration” value: 1.56 µg/mL for the first, 50 µg/mL for the second.

With B5 the “Completely neutralizing concentration” value was 3.13 µg/mL.

molecular target: T1, pertussis toxin (PT); experiment: ELISA, PT coated 0.3 µg/well, anti-human IgG Fc-HRP, four-parameter fit

B10 and B11 are within 1.5-fold of each other in EC50: 0.0349 µg/mL for the first, 0.0333 µg/mL for the second.

B12 and B13 are within 1.5-fold of each other in EC50: 0.0205 µg/mL for the first, 0.0221 µg/mL for the second.

B14 and B15 are within 1.5-fold of each other in EC50: 0.0264 µg/mL for the first, 0.0256 µg/mL for the second.
